Hit rate of the full screen: of about 39,000 compounds, about 220 (0.56%) showed activity. This is one part of the list.
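Note: static incubation at 37 °C against the wild-type strain, values averaged over two biological replicates.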

In the experiment the test system is Escherichia coli K-12 BW25113. The experiment in a line: relative growth (OD600 normalised to plate interquartile mean) (fraction); higher = less growth inhibition, active = 0.2 or less. Particulars: 50 µM; LB; incubation time: overnight (16-24 h).
For the compound `C[C@H](CO)N1C[C@H](C)[C@H](CN(C)S(C)(=O)=O)OCc2ccccc2-c2c(n(C)c3ccccc23)C1=O`, the relative growth was inactive: 0.983.

As to `C[C@H](CO)N1C[C@H](C)[C@H](CN(C)S(=O)(=O)c2cn(C)cn2)Oc2ccc(NC(=O)CCN3CCOCC3)cc2CC1=O`, the relative growth was inactive: 0.989.

For the compound `C[C@@H]1CN([C@@H](C)CO)C(=O)Cc2cc(NC(=O)Cc3cn(C)c4ccccc34)ccc2O[C@H]1CN(C)C`, the relative growth was inactive: 0.989.

Turning to `COc1cccc(S(=O)(=O)Nc2ccc3c(c2)[C@H]2C[C@H](CC(=O)NCCc4ccccc4)O[C@H](CO)[C@H]2O3)c1`, the relative growth was inactive: 1.01.

For the compound `C[C@@H]1CN([C@H](C)CO)S(=O)(=O)c2ccc(C3=CCCCC3)cc2O[C@@H]1CN(C)S(=O)(=O)c1cn(C)cn1`, the relative growth was inactive: 1.02.

With `Cc1c(C)n2c3c(=O)[nH]c(=O)n(C)c3nc2n1C`, the relative growth is inactive: 0.985.

`C[C@H]1CN([C@@H](C)CO)C(=O)c2ccccc2-c2ccccc2CO[C@H]1CN(C)S(=O)(=O)c1cn(C)cn1`: the relative growth is inactive: 1.

`Cc1ccc(NC(=O)c2cc(=O)[nH]c(=O)[nH]2)cc1`: the relative growth is inactive: 1.02.

For `C[C@@H]1CN([C@@H](C)CO)C(=O)Cc2cc(NC(=O)CCCCCC(=O)Nc3ccccc3N)ccc2O[C@@H]1CN(C)Cc1ccc(Oc2ccccc2)cc1`, the relative growth is inactive: 1.02.

Turning to `C[C@@H]1CN([C@H](C)CO)S(=O)(=O)c2ccc(-c3ccc(C#N)cc3)cc2O[C@H]1CN(C)C(=O)CN(C)C`, the relative growth was inactive: 0.976.

As for `C[C@@H]1CN([C@H](C)CO)C(=O)c2cc(NC(=O)CCC(F)(F)F)ccc2O[C@@H](C)CCCCO[C@@H]1CN(C)Cc1ccccc1`, the relative growth is inactive: 0.974.

As for `C[C@H](CO)N1C[C@H](C)[C@H](CN(C)Cc2ccc(Cl)c(Cl)c2)Oc2ccc(NC(=O)Cc3cn(C)c4ccccc34)cc2C1=O`, the relative growth was inactive: 1.02.

Turning to `COCC(=O)Nc1ccc2c(c1)C(=O)N(C)C[C@H](OC)[C@H](C)CN(Cc1cccc(F)c1)[C@H](C)CO2`, the relative growth is inactive: 1.01.

On to `O=C(CCCCCCC(=O)Nc1ccc([C@H]2C[C@H](c3ccccc3)O[C@H](c3cccc(Oc4ccccc4)c3)O2)cc1)NO`, for which the relative growth was inactive: 1.01.

Take `COc1ccc(S(=O)(=O)N(C)C[C@H]2Oc3ccc(NS(=O)(=O)c4c(C)noc4C)cc3CC(=O)N([C@@H](C)CO)C[C@H]2C)cc1`: the relative growth was inactive: 1.02.

As for `COCC(=O)N(C)C[C@@H]1Oc2cc(C#C[C@@H](C)O)ccc2S(=O)(=O)N([C@@H](C)CO)C[C@@H]1C`, the relative growth was inactive: 0.95.

`C[C@H]1CCCCO[C@H](CN(C)C(=O)C2CCCCC2)[C@@H](C)CN([C@@H](C)CO)C(=O)c2cc(NC(=O)Nc3ccccc3)ccc2O1`: the relative growth was inactive: 1.01.

With `C[C@H](CO)N1C[C@H](C)[C@@H](CN(C)Cc2ccc3c(c2)OCO3)Oc2ccc(NS(=O)(=O)c3cn(C)cn3)cc2C1=O`, the relative growth is inactive: 0.998.

Turning to `COc1ccc2c3c(n(c2c1)C)[C@@H](CO)N(CC1CCOCC1)C[C@]13CN(C1)C(=O)c1cccc(c1)F`, the relative growth was inactive: 1.02.

Take `C[C@@H]1CN([C@@H](C)CO)C(=O)c2cccc(NC(=O)C3CCOCC3)c2O[C@H]1CN(C)C(=O)Nc1ccc2c(c1)OCO2`: the relative growth is inactive: 1.

Take `COc1ccc(S(=O)(=O)Nc2ccc3c(c2)C(=O)N([C@H](C)CO)C[C@@H](C)[C@H](CN(C)S(C)(=O)=O)OCCCC[C@@H](C)O3)cc1`: the relative growth is inactive: 1.

On to `C[C@H](CO)N1C[C@H](C)[C@@H](CN(C)C(=O)Nc2ccc3c(c2)OCO3)OCCCC[C@H](C)Oc2ccc(NC(=O)c3ccncc3)cc2C1=O`, for which the relative growth is inactive: 0.997.

In the case of `C[C@H]1CN([C@@H](C)CO)C(=O)CCCn2cc(nn2)CO[C@@H]1CN(C)C(=O)c1cc(-c2ccccc2)on1`, the relative growth is inactive: 0.984.

As to `C[C@@H]1CN([C@@H](C)CO)C(=O)c2cccc(NC(=O)c3cnccn3)c2O[C@@H]1CN(C)C(=O)Nc1ccccc1`, the relative growth is inactive: 0.951.

`COc1cc(N)ccn1`: the relative growth is inactive: 1.07.

On to `C[C@H](CO)N1C[C@H](C)[C@@H](CN(C)Cc2ccc(C(F)(F)F)cc2)Oc2ccc(NC(=O)NC3CCCCC3)cc2CC1=O`, for which the relative growth is inactive: 0.958.

Take `C[C@@H]1CN([C@@H](C)CO)C(=O)c2cc(NC(=O)CCCCCC(=O)Nc3ccccc3N)ccc2O[C@@H]1CN(C)Cc1ccc(-c2ccccc2)cc1`: the relative growth was inactive: 0.961.

Turning to `COc1ccc(S(=O)(=O)N(C)C[C@H]2Oc3ccc(NS(=O)(=O)c4ccc(F)cc4)cc3C(=O)N([C@@H](C)CO)C[C@@H]2C)cc1`, the relative growth was inactive: 0.998.

Consider `CCc1cnc2c(c1OC)c(=O)n(CC(=O)NCCOC)c(=O)n2C`, for which the relative growth is inactive: 0.98.

In the case of `C[C@H](CO)N1C[C@H](C)[C@H](CN(C)Cc2ccc(-c3ccccc3)cc2)Oc2ccc(NC(=O)Nc3ccc(F)cc3)cc2CC1=O`, the relative growth was inactive: 1.04.

With `C[C@@H]1CN([C@@H](C)CO)C(=O)c2cc(NC(=O)NC3CCCCC3)ccc2O[C@@H]1CN(C)C(=O)Nc1cccc2ccccc12`, the relative growth was inactive: 1.01.

On to `CCNC(=O)C[C@H]1CC[C@H]2[C@@H](COC[C@@H](O)CN2S(=O)(=O)c2ccc(Oc3ccccc3)cc2)O1`, for which the relative growth was inactive: 1.01.

For the compound `C[C@@H]1CN([C@H](C)CO)C(=O)c2cccc(NC(=O)NC3CCCCC3)c2O[C@H]1CN(C)Cc1ccc(-c2ccccc2)cc1`, the relative growth is inactive: 0.936.

Turning to `COc1ccc(CN(C)C[C@H]2OCCCC[C@@H](C)Oc3ccc(NC(=O)Nc4c(C)noc4C)cc3C(=O)N([C@H](C)CO)C[C@H]2C)cc1`, the relative growth was inactive: 0.987.

For the compound `C[C@@H]1CN([C@@H](C)CO)C(=O)c2cc(NC(=O)Nc3ccc(C(F)(F)F)cc3)ccc2O[C@@H](C)CCCCO[C@H]1CN(C)S(=O)(=O)c1cn(C)cn1`, the relative growth was inactive: 1.03.

As for `C[C@H]1CN([C@@H](C)CO)C(=O)c2cccc(NS(=O)(=O)c3cccs3)c2O[C@H]1CN(C)S(=O)(=O)c1ccccc1`, the relative growth is inactive: 1.02.

Regarding `C[C@@H]1CCCCO[C@@H](CN(C)S(=O)(=O)c2ccccc2)[C@@H](C)CN([C@@H](C)CO)C(=O)c2cc(NS(=O)(=O)c3ccc(Cl)cc3)ccc2O1`, the relative growth is inactive: 1.01.

On to `C[C@H](CO)N1C[C@H](C)[C@@H](CN(C)S(=O)(=O)c2cccs2)Oc2ccc(NC(=O)Nc3cccc4ccccc34)cc2C1=O`, for which the relative growth was inactive: 1.02.

As to `C=CC[C@H](CC(=O)N(CCO)Cc1ccccc1)C(=O)NC[C@H](OC(=O)[C@@H](CC=C)Cc1ccc(F)cc1)c1ccccc1`, the relative growth is inactive: 1.07.

As for `COc1ccc(NC(=O)N(C)C[C@H]2OCCCC[C@H](C)Oc3ccc(NC(=O)NC(C)C)cc3C(=O)N([C@@H](C)CO)C[C@@H]2C)cc1`, the relative growth was inactive: 0.988.

Turning to `C[C@@H]1CCCCO[C@H](CN(C)CC2CCCCC2)[C@@H](C)CN([C@H](C)CO)C(=O)c2cc(NC(=O)Nc3ccc(C(F)(F)F)cc3)ccc2O1`, the relative growth was inactive: 1.01.

Turning to `O=C(CN1CCOCC1)NCC[C@H]1CC[C@@H](NC(=O)Nc2ccccc2)[C@H](CO)O1`, the relative growth was inactive: 0.976.

For the compound `Cc1cc(C(=O)Nc2cccc3c2O[C@@H](CN(C)C(=O)NC(C)C)[C@H](C)CN([C@H](C)CO)C3=O)n(C)n1`, the relative growth was inactive: 0.958.

For the compound `C[C@@H]1CCCCO[C@H](CN(C)C(=O)Nc2ccc(C(F)(F)F)cc2)[C@@H](C)CN([C@H](C)CO)C(=O)c2cc(NC(=O)c3ccncc3)ccc2O1`, the relative growth was inactive: 0.995.

With `Cc1noc(C)c1S(=O)(=O)N(C)C[C@@H]1OCCCC[C@@H](C)Oc2ccc(NC(=O)Nc3cccc4ccccc34)cc2C(=O)N([C@H](C)CO)C[C@@H]1C`, the relative growth is inactive: 0.998.

Take `C[C@@H]1CN([C@H](C)CO)C(=O)c2cc(NS(=O)(=O)c3cccs3)ccc2O[C@@H]1CN(C)S(C)(=O)=O`: the relative growth was inactive: 0.981.

As to `CCC(=O)N(C)C[C@@H]1Oc2ncc(C#C[C@H](C)O)cc2C(=O)N([C@@H](C)CO)C[C@H]1C`, the relative growth is inactive: 1.02.

As for `C[C@H](CO)N1C[C@H](C)[C@@H](CN(C)Cc2ccc(Cl)c(Cl)c2)Oc2ccc(NC(=O)Nc3ccc4c(c3)OCO4)cc2C1=O`, the relative growth was inactive: 0.979.

Regarding `NNC(=O)CNC(=O)c1ccccc1`, the relative growth was inactive: 0.997.

On to `CC(C=CC=C(C)C=CC1=C(C)C(=O)CCC1(C)C)=CC=CC=C(C)C=CC=C(C)C=CC1=C(C)C(=O)CCC1(C)C` [CANTHAXANTHIN (euglenanone)], for which the relative growth is inactive: 1.05.

On to `CN(C)CCCNC(=O)C[C@@H]1CC[C@@H]2[C@H](COC[C@H](O)CN2S(=O)(=O)c2ccc(F)cc2)O1`, for which the relative growth was inactive: 0.987.

With `C[C@@H]1CCCCO[C@@H](CN(C)C(=O)Nc2ccc3c(c2)OCO3)[C@@H](C)CN([C@@H](C)CO)C(=O)c2cc(NC(=O)Cc3ccccc3)ccc2O1`, the relative growth was inactive: 0.996.

As to `C[C@@H]1CN([C@@H](C)CO)C(=O)c2cccc(NC(=O)C3CCCCC3)c2O[C@H]1CN(C)Cc1ccc(Oc2ccccc2)cc1`, the relative growth was inactive: 0.983.

As to `COc1ccc(CN(C)C[C@H]2Oc3ccc(NC(=O)Nc4cccc5ccccc45)cc3CC(=O)N([C@@H](C)CO)C[C@@H]2C)cc1`, the relative growth is inactive: 1.

In the case of `CC(C)Cn1c(N)cc(=O)n(C)c1=O`, the relative growth was inactive: 1.02.

As for `CCOC(=O)[C@@H](N)[C@@H](O)c1ccccc1`, the relative growth is inactive: 0.937.

`COc1ccc(S(=O)(=O)N(C)C[C@@H]2Oc3ccc(NC(=O)Nc4c(C)noc4C)cc3CC(=O)N([C@H](C)CO)C[C@@H]2C)cc1`: the relative growth is inactive: 0.989.

Consider `C[C@@H]1CN([C@@H](C)CO)C(=O)c2cc(NC(=O)C3CCCCC3)ccc2O[C@@H]1CN(C)S(=O)(=O)c1cn(C)cn1`, for which the relative growth was inactive: 1.04.

In the case of `O=C(C[C@@H]1C[C@@H]2c3cc(NC(=O)c4cccnc4)ccc3O[C@@H]2[C@@H](CO)O1)NCc1cc(F)ccc1F`, the relative growth was inactive: 0.997.

These data come from the supplement of paper PMC9446081.
